# Experimental data from the supplement of paper PMC9446081.
# Among all 39,000 compounds or so, about 220 (0.56%) showed activity. This is one part of the list.
# Test system: Escherichia coli K-12 BW25113
# Assay: relative growth (OD600 normalised to plate interquartile mean) (fraction); higher = less growth inhibition, active = 0.2 or less
# Conditions: 50 µM; LB; incubation time: overnight (16-24 h)
# 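Note: static incubation at 37 °C against the wild-type strain, values averaged over two biological replicates.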
row,Structure (SMILES),relative growth
1,C[C@H](CO)N1C[C@H](C)[C@@H](CN(C)Cc2ccc(C(=O)Nc3ccccc3N)cc2)Oc2ccc(NC(=O)Cn3cnnn3)cc2CC1=O,inactive: 1.01
2,Cc1noc(C)c1NC(=O)Nc1ccc2c(c1)C(=O)N([C@@H](C)CO)C[C@H](C)[C@@H](CN(C)Cc1ccc(C(=O)O)cc1)OCCCC[C@H](C)O2,inactive: 0.917
3,C[C@@H]1CCCCO[C@@H](CN(C)S(=O)(=O)c2ccccc2)[C@H](C)CN([C@H](C)CO)C(=O)c2cc(NS(=O)(=O)c3ccc(Cl)cc3)ccc2O1,inactive: 1.02
4,C[C@H]1CN([C@@H](C)CO)C(=O)c2cc(NS(C)(=O)=O)ccc2O[C@H]1CN(C)C(=O)Nc1ccccc1,inactive: 0.986
5,O=c1ccn(C2OC(CO)C(O)C2O)c(=O)[nH]1 (stereo not given),inactive: 1.01
6,CO[C@H]1CN(C)C(=O)c2ccc(NS(=O)(=O)CC(F)(F)F)cc2OC[C@H](C)N(Cc2ccccn2)C[C@@H]1C,inactive: 1.04
7,C[C@@H]1CN([C@@H](C)CO)C(=O)c2c(c3ccccc3n2C)-c2ccccc2CO[C@@H]1CN(C)C(=O)Nc1ccccc1,inactive: 1
8,C[C@@H]1CCCCO[C@@H](CN(C)CC2CC2)[C@H](C)CN([C@H](C)CO)C(=O)c2cc(NC(=O)Nc3cccc4ccccc34)ccc2O1,inactive: 0.982
9,CC(=O)NCC1CN(c2ccc(N3CCOCC3)c(F)c2)C(=O)O1 (stereo not given),inactive: 0.701
10,Cc1noc(C)c1NC(=O)N(C)C[C@@H]1Oc2ccc(NC(=O)C3CC3)cc2C(=O)N([C@@H](C)CO)C[C@@H]1C,inactive: 0.971
11,C[C@@H]1CN([C@@H](C)CO)C(=O)c2ccccc2-c2ccccc2CO[C@@H]1CN(C)Cc1ccc(Cl)c(Cl)c1,inactive: 1.02
12,C[C@H](CO)N1C[C@H](C)[C@@H](CN(C)S(=O)(=O)c2cn(C)cn2)Oc2ccc(NC(=O)Nc3ccc4c(c3)OCO4)cc2CC1=O,inactive: 0.978
13,COC(=O)N1CCC(CN)CC1,inactive: 1.01
14,C[C@@H]1CN([C@@H](C)CO)S(=O)(=O)c2ccc(C#Cc3ccccc3)cc2O[C@H]1CN(C)C(=O)Cc1ccccn1,inactive: 1.01
15,COc1ccc(NC(=O)Nc2ccc3c(c2)C(=O)N([C@@H](C)CO)C[C@@H](C)[C@H](CN(C)S(=O)(=O)c2ccc(F)cc2)OCCCC[C@@H](C)O3)cc1,inactive: 1.05
16,N[C@@H]1CC[C@@H](CCn2cc(-c3ccccn3)nn2)O[C@H]1CO,inactive: 0.843
17,COc1ccc2c3c([nH]c2c1)[C@H](CO)N(C[C@]13CCN(CC1)Cc1cc(ccc1F)F)C(=O)Nc1ccc(cc1)F,inactive: 0.98
18,CO[C@H]1CN(C)C(=O)c2cc(NS(C)(=O)=O)ccc2OC[C@H](C)N(C(=O)CN(C)C)C[C@H]1C,inactive: 0.985
19,C[C@H](CO)N1C[C@H](C)[C@@H](CN(C)S(C)(=O)=O)Oc2ccc(NS(=O)(=O)c3ccccc3)cc2CC1=O,inactive: 0.997
20,C[C@H]1CN([C@@H](C)CO)C(=O)Cc2cc(NC(=O)C3CC3)ccc2O[C@@H]1CN(C)Cc1ccc(C(=O)O)cc1,inactive: 0.981

row,Structure (SMILES),relative growth
1,C[C@H](CO)N1C[C@H](C)[C@H](CN(C)Cc2ccc(C(=O)O)cc2)Oc2ccc(NC(=O)CCN3CCOCC3)cc2CC1=O,inactive: 1.01
2,O=C(Cc1ccc(-c2ccccc2)cc1)N[C@@H]1CCOC1.O=C(Cc1ccc(-c2ccccc2)cc1)N[C@H]1CCOC1,inactive: 0.979
3,C[C@@H]1CCCCO[C@@H](CN(C)Cc2ccncc2)[C@H](C)CN([C@H](C)CO)C(=O)c2cc(NC(=O)NC3CCCCC3)ccc2O1,inactive: 1.02
4,CCC[C@@H](O)C#Cc1cnc2c(c1)C(=O)N([C@H](C)CO)C[C@H](C)[C@H](CN(C)S(=O)(=O)c1cccc(OC)c1)O2,inactive: 1.02
5,COc1ccc(CN(C)C[C@@H]2Oc3ccc(NC(=O)CCCCCC(=O)Nc4ccccc4N)cc3CC(=O)N([C@H](C)CO)C[C@H]2C)cc1,inactive: 0.978
6,C[C@H](CO)N1C[C@H](C)[C@@H](CN(C)CC2CCCCC2)Oc2ccc(NC(=O)Cn3cnnn3)cc2C1=O,inactive: 1.03
7,CN(CC(=O)NC1CCCC1)S(C)(=O)=O,inactive: 0.986
8,COc1cccc(S(=O)(=O)Nc2ccc3c(c2)[C@H]2C[C@H](CC(=O)NCc4cccc(F)c4)O[C@@H](CO)[C@H]2O3)c1,inactive: 1.03
9,O=C(NCCN1CCOCC1)c1ccccn1,inactive: 1.02
10,C[C@H](CO)N1C[C@H](C)[C@@H](CN(C)Cc2ccc(-c3ccccc3)cc2)Oc2c(NS(=O)(=O)c3ccccc3)cccc2C1=O,inactive: 0.978
11,CC(C)NC(=O)N(C)C[C@H]1Oc2ccc(NC(=O)CCC(F)(F)F)cc2CC(=O)N([C@@H](C)CO)C[C@H]1C,inactive: 0.984
12,C[C@@H]1CN([C@H](C)CO)C(=O)c2cc(NC(=O)CCCN(C)C)ccc2O[C@@H]1CN(C)Cc1ccc(C(=O)O)cc1,inactive: 1.01
13,CO[C@@H]1CN(C)C(=O)c2ccc(NC(=O)CC(F)(F)F)cc2OC[C@@H](C)N(C(=O)C2CCOCC2)C[C@@H]1C,inactive: 0.992
14,C[C@@H]1CN([C@H](C)CO)C(=O)Cc2cc(NC(=O)c3ccncc3)ccc2O[C@@H]1CN(C)S(=O)(=O)c1ccc(Cl)cc1,inactive: 0.989
15,COCC(=O)N(C)C[C@@H]1Oc2cc(C#CCN(C)C)ccc2S(=O)(=O)N([C@H](C)CO)C[C@@H]1C,inactive: 0.938
16,C[C@@H]1CN([C@@H](C)CO)C(=O)Cc2cc(NC(=O)Cc3cn(C)c4ccccc34)ccc2O[C@@H]1CN(C)Cc1ccc(-c2ccccc2)cc1,inactive: 0.992
17,Cc1noc(C)c1NC(=O)N(C)C[C@@H]1OCCCC[C@H](C)Oc2ccc(NC(=O)CCC(F)(F)F)cc2C(=O)N([C@@H](C)CO)C[C@@H]1C,inactive: 0.991
18,Cc1ccc(S(=O)(=O)N2C[C@@H](O)COC[C@H]3O[C@H](CC(=O)NCc4ccccc4C(F)(F)F)CC[C@@H]32)cc1,inactive: 0.933
19,CCC(=O)OCN1C(=O)C=CC1=O,inactive: 0.998
20,Cc1ccc(S(=O)(=O)Nc2ccc3c(c2)C(=O)N([C@H](C)CO)C[C@@H](C)[C@@H](CN(C)S(=O)(=O)c2cn(C)cn2)O3)cc1,inactive: 0.956

row,Structure (SMILES),relative growth
1,C[C@H]1CCCCO[C@@H](CN(C)C(=O)Nc2ccc3c(c2)OCO3)[C@@H](C)CN([C@@H](C)CO)C(=O)c2cc(NC(=O)Nc3ccc(C(F)(F)F)cc3)ccc2O1,inactive: 1.05
2,O=C(/C=C/c1ccc(O)c(O)c1)O[C@@H]1C[C@](O)(C(=O)O)C[C@@H](OC(=O)/C=C/c2ccc(O)c(O)c2)[C@H]1OC(=O)/C=C/c1ccc(O)c(O)c1,inactive: 0.961
3,C[C@@H]1CN([C@@H](C)CO)C(=O)Cc2cc(NC(=O)CCN3CCOCC3)ccc2O[C@H]1CN(C)S(=O)(=O)c1ccc(Cl)cc1,inactive: 1
4,C[C@H]1CCCCO[C@H](CN(C)C(=O)Nc2ccccc2)[C@@H](C)CN([C@@H](C)CO)C(=O)c2cc(NS(=O)(=O)c3cccs3)ccc2O1,inactive: 1.02
5,O=C1O[C@H](c2ccccc2)[C@H](c2ccccc2)N2[C@H]1[C@@H](C(=O)N1CCCCCCC1)[C@]1(C(=O)Nc3ccc(C#CC4(O)CCCCCC4)cc31)[C@H]2c1ccc(OCCO)cc1,inactive: 1.04
6,C[C@@H]1CN([C@H](C)CO)C(=O)c2cccc(NC(=O)Nc3ccc(C(F)(F)F)cc3)c2O[C@H]1CN(C)C(=O)NC1CCCCC1,inactive: 0.661
7,C[C@H](CO)N1C[C@H](C)[C@@H](CN(C)C(=O)NC2CCCCC2)OCCCC[C@H](C)Oc2ccc(NS(=O)(=O)c3ccc(F)cc3)cc2C1=O,inactive: 0.992
8,C[C@@H]1CN([C@H](C)CO)C(=O)c2cc(NS(=O)(=O)c3ccc(F)cc3)ccc2O[C@H]1CN(C)S(=O)(=O)c1ccccc1,inactive: 1.01
9,c1cnc2ccc3ncccc3c2c1,inactive: 0.966
10,Cc1noc(C)c1S(=O)(=O)Nc1cccc2c1O[C@H](CN(C)Cc1ccc3c(c1)OCO3)[C@H](C)CN([C@@H](C)CO)C2=O,inactive: 1.01
11,O=C1c2ccccc2C(=O)c2c1ccc(O)c2O,inactive: 1.14
12,C[C@@H]1CN([C@H](C)CO)S(=O)(=O)c2ccc(C#CC3CC3)cc2O[C@@H]1CN(C)C(=O)Cc1ccncc1,inactive: 1.02
13,CN(/N=C/c1ccncc1)C1=NCCN1,inactive: 0.975
14,Cc1noc(C)c1S(=O)(=O)Nc1cccc2c1O[C@@H](CN(C)Cc1ccc(Oc3ccccc3)cc1)[C@@H](C)CN([C@H](C)CO)C2=O,inactive: 1
15,O=c1c2cc(O)c(O)cc2oc2cc(O)c(C3OC(CO)C(O)C(O)C3O)c(O)c12 (stereo not given),inactive: 0.996
16,O=C(C[C@H]1C=C[C@@H](NS(=O)(=O)c2ccc(F)cc2)[C@@H](CO)O1)NCCN1CCCCC1,inactive: 1.01
17,COc1ccc(NC(=O)Nc2ccc3c(c2)C(=O)N([C@H](C)CO)C[C@@H](C)[C@H](CN(C)Cc2ccc(Cl)c(Cl)c2)OCCCC[C@H](C)O3)cc1,inactive: 0.997
18,C[C@H](CO)N1C[C@H](C)[C@@H](CN(C)Cc2ccc(C(=O)Nc3ccccc3N)cc2)Oc2ccc(NS(C)(=O)=O)cc2CC1=O,inactive: 1
19,C[C@@H]1CN([C@H](C)CO)C(=O)c2cccc(NC(=O)NC3CCCCC3)c2O[C@@H]1CN(C)Cc1ccc(Cl)c(Cl)c1,inactive: 0.975
20,CC(=O)N(C)C[C@H]1Oc2cc(C#CCN(C)C)ccc2S(=O)(=O)N([C@H](C)CO)C[C@@H]1C,inactive: 0.96
